Several values for one entry are separate records, joined by “and”; a condition that tells them apart may be missing. Equal values may be shown once. Out of some 420,000 compounds screened, about 64,000 (15%) were called active. Inconclusive results, whose numbers are uncertain, are shown with a selection of clear calls. Calls follow the shape of the dose curve; as a rule, active = well fitted inhibition curve with a large enough effect; inconclusive = small, poorly fitted or top-dose-only effect; inactive = flat fitted curve, though single readings scatter. Potencies beside an inconclusive call are fits to weak or partial responses and may not hold up.
Test: qHTS for Inhibitors of human tyrosyl-DNA phosphodiesterase 1 (TDP1): qHTS in cells in absence of CPT; also: nearly all actives have a fitted effect of over 55% in size
Details: DT40 Tdp1-/- hTDP1 cells, no CPT, ATP luminescence, 48 h; activity change, negative = growth inhibition: at 46.2 µM (top of the series)
Method in brief: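 Seeded 400 DT40-hTDP1 cells/well (vehicle DMSO, no 20 nM CPT); pinned compounds; ≥48 hr at 37 °C; CellTiter-Glo luminescence as viability measure.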
% is scaled to controls: 0 for no effect and ±100 for the full control effect; potency is read from the fitted curve at half-maximal effect; tags tell the direction and shape of the fitted curve.

Structure (SMILES) | Potency | activity change, negative = growth inhibition
Cc1ccc(S(=O)(=O)C[C@@H]2OC3CCCCC3N2S(=O)(=O)c2ccc(C)cc2)cc1 (stereo partly drawn) | inconclusive: 29.1 µM [inhibitor, single point] | –
CSCC[C@H](NC(=O)C1CCN(S(=O)(=O)c2ccc(C)cc2C)CC1)c1nc2ccccc2[nH]1 | inconclusive: 29.1 µM [inhibitor, single point] | –
COc1ccc(/C=N\NC(=O)c2ccc(-c3ccccc3)cc2)cc1COC(C)=O | inconclusive: 1.84 µM [inhibitor, partial curve, poor fit] | –
CCOC(=O)c1c(CSc2nc(C)cc(C)c2C#N)n(C)c2cc(Br)c(OC(C)=O)cc12 | active: 25.9 µM | –
O=C1c2ccccc2C(c2nnnn2Cc2ccccc2)N1Cc1cccs1 (stereo not drawn) | inconclusive: 16.4 µM [inhibitor, single point] | –
O=C(O)C1CCCCC1C(=O)NCCc1ccc(Cl)cc1 (stereo not drawn) | – | inactive: -19.4%
Cc1cccc(CCNC(=O)COc2cc(=O)n(C)c3ccccc23)c1 | inconclusive: 29.1 µM [inhibitor, single point] | –
COc1cc(N(Cc2ccccc2)Cc2ccccc2)c2ncn(C(C)C)c2c1 | inconclusive: 16.4 µM [inhibitor, single point] | –
CC(=O)c1cccc(NC(=O)N2C3CCCC2CC(NC(=O)C2CC2)C3)c1 (stereo not drawn) | – | inactive: 3.4%
O=C1c2ccsc2SCCN1Cc1cccc(Cl)c1 | inconclusive: 16.4 µM [inhibitor, partial curve, poor fit] | –
CCn1cc(C(=O)NCCc2ccccc2)c(=O)c2cc(S(=O)(=O)N3CCc4ccccc4C3)ccc21 | active: 20.6 µM | –
Cc1cccc(-c2noc(-c3c(C)noc3C)n2)c1 | – | inactive: -19.4%
COc1ccc(CSCCc2n[nH]c(=S)n2-c2ccccc2)cc1C | inconclusive: 14.6 µM [inhibitor, single point] | –
Cc1ccc(S(=O)(=O)N/N=C\c2cc3c(cc2Br)OCO3)cc1 | inconclusive: 29.1 µM [inhibitor, single point] | –
COc1cc(/C=C/C(=O)OCC(=O)N2CCC(Cc3ccccc3)CC2)ccc1O | active: 14.6 µM | –
CCCCS(=O)(=O)N1CCC(C(=O)NCC2CCCO2)CC1 (stereo not drawn) | – | inactive: 4.89%
Cc1ccc(C(=O)N2CCN(C(=O)c3ccc(C)cc3)C2)cc1 | inconclusive: 25.9 µM [inhibitor, single point] | –
O=S(=O)(NCCc1csc2nc(-c3ccc(Cl)cc3)nn12)c1ccc2c(c1)OCCO2 | active: 9.2 µM | –
Cc1ccc(C)c(NC2=C(Cl)C(=O)OC2OC(C)C)c1 (stereo not drawn) | – | inactive: -11.2%
COC(=O)CSc1ccnc2cc(Cl)ccc12 | – | inactive: 13.1%
Cc1ccc2c(c1)CC[C@H]1CC(=O)CC[C@@]21C | – | inactive: -23.3%
COc1ccc(OC)c(CN2CCC(CNC(=O)Nc3cccc(Cl)c3)CC2)c1 | inconclusive: 29.1 µM [inhibitor, single point] | –
CCCCC(=O)NC(Nc1nc(C2CC2)cs1)(C(=O)OCC)C(F)(F)F (stereo not drawn) | inconclusive: 18.4 µM [inhibitor, single point] | –
O=C(C(c1ccccc1)c1ccccc1)N1CCN(CCN2C(=O)c3cccc4cccc(c34)C2=O)CC1 | inconclusive: 23.1 µM [inhibitor, single point] | –
COc1ccc(C(=O)OC(C)C(=O)NC(C)CCc2ccccc2)cc1[N+](=O)[O-] (stereo not drawn) | inconclusive: 25.9 µM [inhibitor, single point] | –

Structure (SMILES) | Potency | activity change, negative = growth inhibition
O=C(NCc1ccc(Cl)cc1)N1CCN(C(=O)c2ccccc2)CC1 | inconclusive: 13 µM [inhibitor, partial curve] | –
CCOc1ccc(S(=O)(=O)N2CCN(C(=S)NCC3CCCO3)CC2)cc1 (stereo not drawn) | – | inactive: -17.7%
CN(CCOC(=O)/C=C/c1ccco1)Cc1ccccc1 | inconclusive: 29.1 µM [inhibitor, single point] | –
O=C1NCCN/C1=C\C(=O)c1cccc(Br)c1 | – | inactive: -27%
CCC(C)NC(=O)CN1C(=O)c2cccnc2Oc2ccc(C)cc21 (stereo not drawn) | – | inactive: -7.06%
COc1ccc(CCNc2nc(SCc3cccc(F)c3)nc3ccccc23)cc1OC | inconclusive: 3.26 µM [inhibitor, full curve, poor fit] | –
Cc1ccc(C2/C(=C(\O)c3c(C)nc4ccccn34)C(=O)C(=O)N2CCN(C)C)o1 (stereo not drawn) | – | inactive: 6.2%
CN(C)c1cccc(-c2cc(Nc3ccc(C(C)(C)C)cc3)ncn2)c1 | inconclusive: 25.9 µM [inhibitor, single point] | –
CNC(=O)C1C2C=CC3(O2)C1C(=O)N(C1CC1)C3C(=O)NCc1ccc(OC)cc1 (stereo not drawn) | – | inactive: 5.04%
COc1ccc(S(=O)(=O)N(C)C[C@H]2OCc3cn(nn3)CCCC(=O)N([C@H](C)CO)C[C@@H]2C)cc1 | – | inactive: -6.01%
CC(C)COc1ccc(CNC(=S)N/N=C/c2ccc([N+](=O)[O-])cc2)cc1 | – | inactive: -27.8%
CCOC(=O)C1(CCOc2ccccc2)CCN(Cc2ccc(O)cc2)CC1 | inconclusive: 23.1 µM [inhibitor, single point] | –
CCC(C)Sc1nnc(NC(=O)c2ccco2)s1 (stereo not drawn) | – | inactive: -18%
Cc1ccc(/C=C/c2nc3ccccc3c(=O)n2CCc2ccccc2)cc1 | active: 16.4 µM | –
COc1ccc(-c2cc(C)no2)cc1S(=O)(=O)N1CCOc2ccc(Cl)cc21 | inactive and inconclusive: 2.91 µM [inhibitor, full curve, poor fit] | –
CCOC(=O)C(NC(=O)N1CCCCC1)(c1ccccc1)C(F)(F)F (stereo not drawn) | – | inactive: -11.6%
COC(=O)c1ccc2c(=O)n(CCCCCC(=O)NCc3ccc(OC)cc3)c(=O)[nH]c2c1 | inconclusive: 23.1 µM [inhibitor, single point] | –
COc1ccc(Nc2cc(C(=O)NCCCN(C)C3CCCCC3)c3ccccc3n2)c(OC)c1 | inconclusive: 23.1 µM [inhibitor, single point] | –
COc1cccc(C(C(=O)Nc2ccc(F)cc2)N(C(=O)Cn2nnc3ccccc32)C2CC2)c1 (stereo not drawn) | inconclusive: 14.1 µM [inhibitor, partial curve] | –
O=C1CSC(=S)N1Cc1cccs1 | active: 18.4 µM | –
Cc1ccc2c(C(=O)N3CCN(c4ccccc4)CC3)cc(-c3cccnc3)nc2c1C | active: 13 µM | –
CC1=NN(C(=O)Cc2ccc([N+](=O)[O-])cc2)C(O)(c2cccnc2)C1 (stereo not drawn) | inconclusive: 25.9 µM [inhibitor, single point] | –
COc1ccc(-c2c(C#N)c(N)nc3sc(C(=O)c4ccccc4)c(N)c23)cc1 | active: 23.1 µM | –
Cc1ccc(S(=O)(=O)N2CCN(S(=O)(=O)c3ccc(C)cc3)C3OCCOC32)cc1 (stereo not drawn) | inconclusive: 18.4 µM [inhibitor, single point] | –
Cc1ccc(S(=O)(=O)C(NC(=O)c2ccccc2)=C(Cl)Cl)cc1 | active: 13 µM | –

Structure (SMILES) | Potency | activity change, negative = growth inhibition
CC(O)(c1ccccc1)c1nc(-c2ccc(Cl)cc2)cs1 (stereo not drawn) | inconclusive: 29.1 µM [inhibitor, single point] | –
O=C(c1ccc(-n2ccnc2)cc1)N1CCCC(CO)(Cc2cccc(Cl)c2)C1 (stereo not drawn) | inconclusive: 16.4 µM [inhibitor, single point] | –
CCOC(=O)C1CCCN(C(=O)c2ccc3c(c2)NC(=O)C(N2CCOCC2)S3)C1 (stereo not drawn) | inconclusive: 20.6 µM [inhibitor, partial curve] | –
CCSC1=C(C#N)C(c2ccc(Cl)cc2)C2=C(CCCC2=O)N1 (stereo not drawn) | active: 1.46 µM | –
c1ccc(-c2nc3c4ccccc4ccn3c2Cc2ccsc2)cc1 | active: 16.4 µM | –
Cc1cc(S(=O)(=O)Nc2ccc(C(=O)NCC(C)(C)N3CCOCC3)cc2)ccc1F | – | inactive: 16.9%
Cc1ccc(NC(=S)N(CCCN(C)C)Cc2cc3cc4c(cc3[nH]c2=O)OCO4)cc1 | – | inactive: -5.39%
Cc1ccc(/C=N/NC(=O)c2csc3c2CCCC3)cc1 | active: 1.3 µM | –
CCOc1cc(/C=N\NC(N)=O)cc(Br)c1OC(C)C | inconclusive: 32.6 µM [inhibitor, partial curve] | –
COc1ccc(NC(=O)C2CCCN(S(=O)(=O)c3c(C)[nH]c(=O)[nH]c3=O)C2)cc1Cl (stereo not drawn) | inactive | –
CCN(CC)S(=O)(=O)c1ccc(S(=O)(=O)NCc2cccs2)cc1 | inconclusive: 32.6 µM [inhibitor, partial curve, poor fit] | –
O=C(Nc1ccc(NC(=O)c2ccccc2F)cn1)c1ccco1 | inconclusive: 18.4 µM [inhibitor, partial curve] | –
CCOc1ccc(C(=O)NC(=S)Nc2cccc(S(=O)(=O)NC3=NCCC3)c2)cc1 | active: 0.82 µM | –
Cc1nn(-c2ccc(N3CCOCC3)nn2)c(C)c1CCC(=O)Nc1ccc(F)cc1F | inconclusive: 29.1 µM [inhibitor, single point] | –
O=C1CCCc2ccccc2N1Cc1ccc(F)cc1 | inconclusive: 9.2 µM [inhibitor, partial curve] | –
COc1ccc(NC(=O)C[C@@H]2C(=O)N(Cc3ccccc3)CC2(C)C)cc1 | active: 20.6 µM | –
CCOc1ccc(S(=O)(=O)N/N=C(\C)c2ccc(OC)cc2OC)cc1 | inconclusive: 29.1 µM [inhibitor, single point] | –
O=C(NCCC1=CCCCC1)C1CCN(S(=O)(=O)c2cccc(C(F)(F)F)c2)CC1 | inconclusive: 29.1 µM [inhibitor, single point] | –
Oc1cc2cc(-c3csc(-c4ccc(F)cc4)n3)ccc2[nH]1 | active: 2.82 µM | –
Cc1ccc(C(=O)Nc2ccc(S(=O)(=O)NCc3ccco3)cc2)cc1 | – | inconclusive: -30.4% [inhibitor]
O=C(C[N+]1(c2ccccc2)CCOCC1)c1ccccc1 | – | inactive: -28.7%
O=C(CSc1nccn1Cc1ccc(Cl)cc1)Nc1ccc2c(c1)OCO2 | – | inactive: -10.2%
O=C(Nc1cccc(S(=O)(=O)N2CCCC2)c1)c1ccc(Cl)nc1 | active: 5.8 µM | –

From PubChem BioAssay AID686978 (National Center for Advancing Translational Sciences (NCATS), 2013)
